# Among all 310,000 compounds or so, about 2,200 (0.71%) showed an effect of 50% or more. The effect is printed as a negative number. Some of the results follow.
# Biological target: human ether-à-go-go-related gene (hERG) potassium channel (human, UniProt Q12809)
# Experiment: primary screen, population patch clamp on CHO cells stably expressing hERG
# human ether-à-go-go-related gene (hERG) potassium channel, sequence (Q12809 whole entry, looked up): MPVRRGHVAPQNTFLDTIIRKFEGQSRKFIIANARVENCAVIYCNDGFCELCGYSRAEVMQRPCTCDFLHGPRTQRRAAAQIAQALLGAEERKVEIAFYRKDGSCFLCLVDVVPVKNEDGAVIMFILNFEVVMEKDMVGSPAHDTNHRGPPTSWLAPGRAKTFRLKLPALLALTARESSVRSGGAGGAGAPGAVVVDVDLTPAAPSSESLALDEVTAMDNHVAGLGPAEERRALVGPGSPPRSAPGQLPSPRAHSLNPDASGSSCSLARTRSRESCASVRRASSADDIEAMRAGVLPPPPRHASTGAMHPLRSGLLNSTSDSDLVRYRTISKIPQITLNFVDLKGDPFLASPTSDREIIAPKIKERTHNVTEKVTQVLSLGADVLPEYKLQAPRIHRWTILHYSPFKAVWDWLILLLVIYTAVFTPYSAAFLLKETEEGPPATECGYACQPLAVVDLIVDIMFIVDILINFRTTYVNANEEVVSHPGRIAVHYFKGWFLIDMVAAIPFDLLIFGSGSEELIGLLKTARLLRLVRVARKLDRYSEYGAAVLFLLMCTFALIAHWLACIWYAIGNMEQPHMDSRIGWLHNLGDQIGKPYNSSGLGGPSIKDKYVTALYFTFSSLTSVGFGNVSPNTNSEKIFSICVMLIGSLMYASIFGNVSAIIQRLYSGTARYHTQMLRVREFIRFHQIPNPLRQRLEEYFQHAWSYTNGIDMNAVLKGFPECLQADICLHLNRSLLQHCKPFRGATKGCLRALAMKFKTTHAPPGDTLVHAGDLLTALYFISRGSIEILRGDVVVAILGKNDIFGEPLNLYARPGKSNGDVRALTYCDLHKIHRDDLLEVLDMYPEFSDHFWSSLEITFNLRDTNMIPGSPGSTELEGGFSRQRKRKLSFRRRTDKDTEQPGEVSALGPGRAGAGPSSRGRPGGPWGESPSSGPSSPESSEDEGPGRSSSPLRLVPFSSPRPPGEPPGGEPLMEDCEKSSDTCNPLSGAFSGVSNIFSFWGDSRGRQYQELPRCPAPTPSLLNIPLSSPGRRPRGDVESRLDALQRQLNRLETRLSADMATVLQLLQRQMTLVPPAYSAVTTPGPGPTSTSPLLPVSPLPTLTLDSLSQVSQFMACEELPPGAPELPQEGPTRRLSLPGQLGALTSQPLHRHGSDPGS
row,SMILES,"hERG current change (%, negative = inhibition) at 1uM [%]"
1,Cc1nc2nc(C)n(-c3ccccc3)c2s1,14.9
2,Cn1c(SCc2nc3ccccc3s2)nnc1-c1cccs1,-6.17
3,CC(=O)Nc1ccc(SCCCC(=O)c2ccccc2)cc1,11.4
4,Cc1ccc(/C=N/N=C/c2ccc(C)cc2)cc1,9.96
5,CCOC(=O)c1ccc(NC(=O)NC2CCN(CC(=O)NCc3ccc4c(c3)OCO4)CC2)cc1,0.922
6,CCCC1=C(C(=O)OCC)C(c2cccnc2)n2nc(C)nc2N1 (stereo not shown),9
7,CCc1c(C)nc2cc(-c3ccccc3)[nH]n2c1=O,0.298
8,CSc1nnc(Cc2cc(=O)[nH]c(=O)[nH]2)n1-c1cc(C)ccc1C,6.68
9,S=c1[nH]nc(-c2cc(-c3ccccc3)n[nH]2)n1/N=C/c1c2ccccc2cc2ccccc12,4.04
10,CCn1c(=O)c2sccc2n(CC(=O)NCCC2=CCCCC2)c1=O,14.4
11,O=C1c2cccc3cccc(c23)C(=O)N1OS(=O)(=O)c1ccc(Cl)cc1,7.28
12,CCCCC(O)(CCCC)C(=O)NN(C(=O)OC)c1ccc(C)cc1,15.7
13,COCCNC(C(=O)Nc1ccc([N+](=O)[O-])cc1Br)c1ccccc1 (stereo not shown),-20.1
14,Cc1ccc2c(c1)NC(=O)C(CC(=O)NCCCN1CCc3ccccc3C1)O2 (stereo not shown),-58.5
15,O=C(NCc1cccc(F)c1)c1ccc(N2C(=O)Cn3c(cc4sccc43)C2=O)cc1,13.5
16,COc1cc(C(=S)N2CCOCC2)cc(OC)c1OC(=O)c1ccc(F)cc1,11.9
17,Cc1ccsc1CN1CCC(C(=O)NCc2ccccc2Cl)CC1.O=C(O)C(=O)O,2.21
18,COc1ccc(CNc2nc3c(c(=O)[nH]c(=O)n3C)n2Cc2ccccc2)cc1,16.7
19,CCOc1cc(NC(=O)c2ccco2)c(OCC)cc1NC(=O)c1cc(OC)c(OC)c(OC)c1,14.1
20,Cc1oc(-c2ccccc2)nc1C(=O)OCC(=O)NC(=O)NCC(C)C,16.6
21,O=[N+]([O-])c1ccccc1/C=N/Nc1nc(N2CCCC2)nc(N2CCCC2)n1,27.5
22,COC1(OC)C(/C=C/c2ccc(C)cc2)C(C#N)(C#N)C1(OC)OC (stereo not shown),-9.02

row,SMILES,"hERG current change (%, negative = inhibition) at 1uM [%]"
1,CCOC(=O)Cc1csc(NC(=O)CCc2ccc(S(=O)(=O)N3CCOCC3)cc2)n1,8.86
2,O=P(CCC(F)(F)F)(CCC(F)(F)F)CCC(F)(F)F,10.6
3,COc1ccc2oc(=O)c(C(=O)NCc3ccc(F)cc3)cc2c1,6.92
4,CCS(=O)(=O)N1CCC(NC(=O)C(Cc2cc(OC)ccc2OC)NC(C)=O)CC1 (stereo not shown),8.11
5,C=CC[N+]1(CC(=O)NCc2ccc(NC(C)=O)cc2)CCOCC1.[Br-],13.3
6,O=C(CCc1ccc(S(=O)(=O)NCc2ccccc2)cc1)NCc1cccnc1,1.42
7,COc1cc(/C=C2/C(=O)NN(c3ccc(Cl)cc3)C2=O)cc(Br)c1O,16.8
8,COc1ccccc1CCNC(=O)C(=O)Nc1cc2c3c(c1)CC(=O)N3CCC2,1.44
9,COc1cc(C2NC(=O)NC(C)=C2C(=O)OC2CCCCC2)cc(Cl)c1O (stereo not shown),6.98
10,CCC(CCC(=O)Nc1ccn(-c2ccccc2)n1)C(=O)O (stereo not shown),7.09
11,Cc1cccc(NC(=O)c2ccoc2C)n1,17
12,O=C(Cn1nc(-c2ccccc2)c2ccccc2c1=O)Nc1cccnc1,7.68
13,CCc1ccc(N2CC(C(=O)OCC(=O)NNC(=O)c3ccccc3)CC2=O)cc1 (stereo not shown),10.4
14,O=C(CCn1c(=O)oc2cc(Cl)ccc21)Nc1ccc(O)cc1,6.07
15,O=C(CNC(=O)c1ccccc1F)NCCc1ccccc1F,10.8
16,CC(C)C(C)(C#N)NC(=O)CSc1nc2scc(-c3ccc(F)cc3)c2c(=O)n1Cc1ccccc1 (stereo not shown),19.2
17,CCCCC(=O)NC(=O)NC(c1ccccc1)c1ccccc1,6.43
18,O=C(CN1C(=O)NC2(CCCCCCC2)C1=O)Nc1ccc(Br)cc1,7.76
19,COc1ccc(CCNC(=O)C2CCC(=O)N2CCc2ccccc2)cc1OC (stereo not shown),13.9
20,COc1ccc(C)cc1S(=O)(=O)N(CC(=O)N1CCCC1)c1ccc(C)cc1,-25.1
21,Cc1nc2cc(N)ccc2n1-c1ccccc1,10.7
22,COCCNC(=S)NNC(=O)CSCc1ccc(Cl)cc1Cl,12.5

row,SMILES,"hERG current change (%, negative = inhibition) at 1uM [%]"
1,COc1ccc(CN2C(=NC(=O)CCC3CCCC3)SC3CS(=O)(=O)CC32)cc1 (stereo not shown),15
2,Cc1ccc(Cn2nnc3c(=O)n(CC(=O)NCC4CCCO4)cnc32)cc1 (stereo not shown),1.92
3,CCOC(=O)c1oc2cc(OCC(N)=O)ccc2c(=O)c1-c1ccc(OC)c(OC)c1,15.2
4,COCCNC(=O)CN1CCN(C(c2ccccc2)c2ccccc2)CC1.O=C(O)C(=O)O,1.83
5,CCOC(=O)N1CCN(C(=O)C2CCC(CNS(=O)(=O)c3ccccc3)CC2)CC1 (stereo not shown),-0.59
6,CCC(CC)c1nnc(NC(=O)Cc2ccccc2[N+](=O)[O-])s1,11.8
7,CCCCN(C)CCN1C(=O)C2C(C(=O)Nc3ccc(OC)cc3)C3C=CC2(O3)C1C(=O)NC1CCCCC1 (stereo not shown),3.44
8,COc1ccccc1CCc1nnc(CCC(=O)NCC(C)Oc2cccnc2)o1 (stereo not shown),3.33
9,O=C(O)c1cc(NC(=O)c2ccc(Br)cc2)cc(NC(=O)c2ccc(Br)cc2)c1,17.3
10,O=C(COc1ccc2ccccc2c1)Nc1cccc2cccnc12,7.64
11,COc1ccc2c(CC(=O)OCC(=O)NC(N)=O)coc2c1,6.38
12,CCNS(=O)(=O)c1ccc(NC(=O)Cc2ccc(F)cc2)cc1,7.95
13,O=C(COc1ccccc1Cl)NC(=O)NC1CCCC1,9.64
14,COc1cc(OC)cc(N(C(=O)C2COc3ccccc3O2)C(C(=O)NC2CCCCC2)c2ccc(O)cc2)c1 (stereo not shown),10.1
15,O=C(NCc1cccc(CNC(=O)C(=O)NCC2CCCO2)c1)C(=O)NCC1CCCO1 (stereo not shown),7.96
16,COc1ccc(C2C(C(=O)NCc3ccccn3)c3cc(OC)c(OC)cc3C(=O)N2C)cc1 (stereo not shown),0.802
17,O=C(CCn1c(=S)[nH]c2ccccc2c1=O)Nc1cccc(Cl)c1,7.43
18,Cn1c(=O)c2nnn(/N=C(\c3ccccc3)C3CC3)c2n(C)c1=O,-1.59
19,CC(=O)Nc1ccc(SC(C)C(=O)NC(N)=O)cc1 (stereo not shown),12
20,O=C(CSc1nc(-c2ccc(F)cc2)cs1)NCCN1C(=O)CSC1=O,2.97
21,Cc1cc(C)n(-c2nc3ccccc3nc2N2CCC(C)CC2)n1,-9.63
22,Cc1cc(C)n(-c2ccc(OCC(=O)O)nn2)n1,4.94

row,SMILES,"hERG current change (%, negative = inhibition) at 1uM [%]"
1,Cc1ccc(-c2ccc(/C=N/NC(=S)Nc3ccccc3)o2)cc1[N+](=O)[O-],14.6
2,O=C(NCCN1CCOCC1)c1cc(-c2ccc(F)cc2)on1,-3.76
3,COc1ccc(/C=C2/NC(=O)N(Cc3ccccc3F)C2=O)cc1OC,2.5
4,CC(C)Oc1cccc(C(=O)Nc2ccc(N3CCN(S(C)(=O)=O)CC3)cc2)c1,5.08
5,CCOC(=O)c1c(/N=C/N(C)C)sc(/C=N/Nc2ccccc2)c1-c1ccc(Cl)cc1,15.9
6,CC(=O)Nc1ccc(Nc2cc(C)nc(Nc3ccc(NC(C)=O)cc3)n2)cc1,6.4
7,C#CCNC(=O)C1=C[C@H](c2ccc(Br)cc2)C[C@H](OCc2ccc(CO)cc2)O1,11
8,COC(=O)c1ccccc1NC(=O)CN1CCC(C)CC1,-0.0967
9,O=C1NC(=O)N(CCc2ccc(F)cc2)C(=O)/C1=C/c1cccs1,11.6
10,CCOC(=O)Cc1csc(NC(=O)C(C)c2ccc([N+](=O)[O-])cc2)n1 (stereo not shown),-7.17
11,COc1ccccc1OC(=O)c1ccc2nsnc2c1,2.75
12,Cc1ccc(S(=O)(=O)N2CCOCC2)cc1NC(=O)CNC1CCCC1.O=C(O)C(=O)O,12.6
13,Cc1ccc(S(=O)(=O)N2CCN(C(=O)c3cc(C4CC4)nc4c3cnn4C(C)C)CC2)cc1,6.5
14,CCn1c(=O)c2c(nc3n2CCCN3CCc2ccc(OC)c(OC)c2)n(C)c1=O,4.99
15,CCC(=O)Nc1cccc(-n2nnnc2SCC(=O)NCc2ccco2)c1,6.16
16,CCCCSc1nc2sc3c(c2c(=O)n1-c1ccc(C)cc1)CCN(C)C3,12.1
17,COCCn1nnnc1C(c1ccc(OC)cc1)N1CCN(C(=O)c2ccco2)CC1.Cl (stereo not shown),9.88
18,CCOC(=O)c1cnc2ccc(C(=O)OC)cc2c1Nc1ccc(C(=O)O)cc1.Cl,6.81
19,O=C(O)c1nnn(-c2ccc([N+](=O)[O-])cc2)c1-c1ccccc1,9.65
